The text below walks through data of publication PMC9911399, “Two distinct binding modes provide the RNA-binding protein RbFox with extraordinary sequence specificity”.

Substitutions are numbered along the chain they refer to; changes in the protein carry UniProt numbers. Some of the results follow.

First the molecules themselves.
T1: RBFOX1 RRM RbFoxmut (Fox-RRM*) (Homo sapiens, UniProt Q9NWB1 109-208, R118D;E147R;N151S;E152T)
T1 sequence: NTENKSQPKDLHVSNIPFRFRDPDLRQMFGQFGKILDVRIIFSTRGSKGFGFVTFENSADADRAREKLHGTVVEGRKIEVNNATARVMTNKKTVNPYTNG

B1: GGGCUGU (DNA:RNA)
RNA: GGGAGACCGGAAUUCAGAUUGUCCGGGCUGUUUAAAUCCCGUCGUAGCCACCA
DNA 1: CAATCTGAATTCCGGTCTCCC
DNA 2: TGGTGGCTACGACGGGATT
B2: GGUACGG (DNA:RNA)
RNA: B1 RNA with G27U, C28A, U29C, U31G
DNA 1: CAATCTGAATTCCGGTCTCCC
DNA 2: TGGTGGCTACGACGGGATT
B3: ACAUCGA (DNA:RNA)
RNA: B1 RNA with G25A, G26C, G27A, C28U, U29C, U31A
DNA 1: CAATCTGAATTCCGGTCTCCC
DNA 2: TGGTGGCTACGACGGGATT
B4: AAUCGCG (DNA:RNA)
RNA: B1 RNA with G25A, G26A, G27U, U29G, G30C, U31G
DNA 1: CAATCTGAATTCCGGTCTCCC
DNA 2: TGGTGGCTACGACGGGATT
B5: ACAUUUA (DNA:RNA)
RNA: B1 RNA with G25A, G26C, G27A, C28U, G30U, U31A
DNA 1: CAATCTGAATTCCGGTCTCCC
DNA 2: TGGTGGCTACGACGGGATT
B6: CGGAUAC (DNA:RNA)
RNA: B1 RNA with G25C, C28A, G30A, U31C
DNA 1: CAATCTGAATTCCGGTCTCCC
DNA 2: TGGTGGCTACGACGGGATT
B7: CUAGACA (DNA:RNA)
RNA: GGGAGACCGGAAUUCAGAUUGUCCCUAGACAUUAAAUCCCGUCGUAGCCACCA
DNA 1: CAATCTGAATTCCGGTCTCCC
DNA 2: TGGTGGCTACGACGGGATT
B8: ACCCUGG (DNA:RNA)
RNA: B1 RNA with G25A, G26C, G27C, U31G
DNA 1: CAATCTGAATTCCGGTCTCCC
DNA 2: TGGTGGCTACGACGGGATT
B9: CAAGUAG (DNA:RNA)
RNA: B7 RNA with U26A, A29U, C30A, A31G
DNA 1: CAATCTGAATTCCGGTCTCCC
DNA 2: TGGTGGCTACGACGGGATT
B10: UUGGUAU (DNA:RNA)
RNA: B1 RNA with G25U, G26U, C28G, G30A
DNA 1: CAATCTGAATTCCGGTCTCCC
DNA 2: TGGTGGCTACGACGGGATT
B11: AAGCAGG (DNA:RNA)
RNA: B1 RNA with G25A, G26A, U29A, U31G
DNA 1: CAATCTGAATTCCGGTCTCCC
DNA 2: TGGTGGCTACGACGGGATT
B12: AUUGGGC (DNA:RNA)
RNA: B7 RNA with C25A, A27U, A29G, C30G, A31C
DNA 1: CAATCTGAATTCCGGTCTCCC
DNA 2: TGGTGGCTACGACGGGATT
B13: UUGUUUC (DNA:RNA)
RNA: B1 RNA with G25U, G26U, C28U, G30U, U31C
DNA 1: CAATCTGAATTCCGGTCTCCC
DNA 2: TGGTGGCTACGACGGGATT
B14: GACCGCG (DNA:RNA)
RNA: B1 RNA with G26A, G27C, U29G, G30C, U31G
DNA 1: CAATCTGAATTCCGGTCTCCC
DNA 2: TGGTGGCTACGACGGGATT
B15: CCGUAGC (DNA:RNA)
RNA: B7 RNA with U26C, A27G, G28U, C30G, A31C
DNA 1: CAATCTGAATTCCGGTCTCCC
DNA 2: TGGTGGCTACGACGGGATT
B16: UACGGAG (DNA:RNA)
RNA: B7 RNA with C25U, U26A, A27C, A29G, C30A, A31G
DNA 1: CAATCTGAATTCCGGTCTCCC
DNA 2: TGGTGGCTACGACGGGATT
B17: UACACAA (DNA:RNA)
RNA: B7 RNA with C25U, U26A, A27C, G28A, A29C, C30A
DNA 1: CAATCTGAATTCCGGTCTCCC
DNA 2: TGGTGGCTACGACGGGATT
B18: CCCUGGU (DNA:RNA)
RNA: B1 RNA with G25C, G26C, G27C, C28U, U29G
DNA 1: CAATCTGAATTCCGGTCTCCC
DNA 2: TGGTGGCTACGACGGGATT
B19: GGUAGUU (DNA:RNA)
RNA: B1 RNA with G27U, C28A, U29G, G30U
DNA 1: CAATCTGAATTCCGGTCTCCC
DNA 2: TGGTGGCTACGACGGGATT
B20: CGCGCAC (DNA:RNA)
RNA: B7 RNA with U26G, A27C, A29C, C30A, A31C
DNA 1: CAATCTGAATTCCGGTCTCCC
DNA 2: TGGTGGCTACGACGGGATT
B21: UGAACCG (DNA:RNA)
RNA: B7 RNA with C25U, U26G, G28A, A29C, A31G
DNA 1: CAATCTGAATTCCGGTCTCCC
DNA 2: TGGTGGCTACGACGGGATT
B22: GAGUGCG (DNA:RNA)
RNA: B1 RNA with G26A, C28U, U29G, G30C, U31G
DNA 1: CAATCTGAATTCCGGTCTCCC
DNA 2: TGGTGGCTACGACGGGATT
B23: GGCAUAC (DNA:RNA)
RNA: B1 RNA with G27C, C28A, G30A, U31C
DNA 1: CAATCTGAATTCCGGTCTCCC
DNA 2: TGGTGGCTACGACGGGATT
B24: UCCGCCC (DNA:RNA)
RNA: B7 RNA with C25U, U26C, A27C, A29C, A31C
DNA 1: CAATCTGAATTCCGGTCTCCC
DNA 2: TGGTGGCTACGACGGGATT
B25: AGCACCU (DNA:RNA)
RNA: B1 RNA with G25A, G27C, C28A, U29C, G30C
DNA 1: CAATCTGAATTCCGGTCTCCC
DNA 2: TGGTGGCTACGACGGGATT
B26: CAUAAAC (DNA:RNA)
RNA: B7 RNA with U26A, A27U, G28A, C30A, A31C
DNA 1: CAATCTGAATTCCGGTCTCCC
DNA 2: TGGTGGCTACGACGGGATT
B27: ACCAUCC (DNA:RNA)
RNA: B7 RNA with C25A, U26C, A27C, G28A, A29U, A31C
DNA 1: CAATCTGAATTCCGGTCTCCC
DNA 2: TGGTGGCTACGACGGGATT
B28: ACGCGUC (DNA:RNA)
RNA: B1 RNA with G25A, G26C, U29G, G30U, U31C
DNA 1: CAATCTGAATTCCGGTCTCCC
DNA 2: TGGTGGCTACGACGGGATT
B29: AGCCUUA (DNA:RNA)
RNA: B1 RNA with G25A, G27C, G30U, U31A
DNA 1: CAATCTGAATTCCGGTCTCCC
DNA 2: TGGTGGCTACGACGGGATT
B30: AUCAGCA (DNA:RNA)
RNA: B7 RNA with C25A, A27C, G28A, A29G
DNA 1: CAATCTGAATTCCGGTCTCCC
DNA 2: TGGTGGCTACGACGGGATT
B31: CACCGUC (DNA:RNA)
RNA: B7 RNA with U26A, A27C, G28C, A29G, C30U, A31C
DNA 1: CAATCTGAATTCCGGTCTCCC
DNA 2: TGGTGGCTACGACGGGATT

The experiment has as its target T1, RBFOX1 RRM RbFoxmut (Fox-RRM*). In words: EMSA; HiTS-Eq, 1 nM pool, 10 min; buffer printed only for the single-RNA assays: 10 mM Tris pH 7.5, 150 mM NaCl, 3.4 mM EDTA, 0.001% NP-40, 30 C. To be noted: tags: His6 N-terminal (pET28a); label: 5' 32P. In outline: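 Relative association constants, normalised to the cognate motif, were derived by comparing read counts of each RNA species with those of the control reaction. The RNA sequenced was the free fraction, separated by 8% native PAGE after a 10 min equilibration in 50 µL of 1 nM 5′-radiolabelled RNA (7 randomized nucleotides) with increasing concentrations of purified wild-type or mutant RbFox RRM.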
With B1, the binding signal is 0.205 KA relative to UGCAUGU.

Regarding B2, the binding signal is 0.131 KA relative to UGCAUGU.

Consider B3, for which the binding signal was 0.0922 KA relative to UGCAUGU.

As to B4, the binding signal is 0.0707 KA relative to UGCAUGU.

Turning to B5, the binding signal is 0.131 KA relative to UGCAUGU.

As for B6, the binding signal was 0.0884 KA relative to UGCAUGU.

As to B7, the binding signal is 0.0461 KA relative to UGCAUGU.

Turning to B8, the binding signal was 0.0978 KA relative to UGCAUGU.

With B9, the binding signal was 0.117 KA relative to UGCAUGU.

As for B10, the binding signal is 0.181 KA relative to UGCAUGU.

With B11, the binding signal is 0.124 KA relative to UGCAUGU.

Consider B12, for which the binding signal is 0.0759 KA relative to UGCAUGU.

For the molecule B13, the binding signal was 0.248 KA relative to UGCAUGU.

For the molecule B14, the binding signal was 0.101 KA relative to UGCAUGU.

In the case of B15, the binding signal was 0.106 KA relative to UGCAUGU.

In the case of B16, the binding signal was 0.0783 KA relative to UGCAUGU.

For B17, the binding signal was 0.0712 KA relative to UGCAUGU.

Regarding B18, the binding signal was 0.127 KA relative to UGCAUGU.

Consider B19, for which the binding signal is 0.0991 KA relative to UGCAUGU.

Consider B20, for which the binding signal is 0.0912 KA relative to UGCAUGU.

On to B21, for which the binding signal was 0.0911 KA relative to UGCAUGU.

On to B22, for which the binding signal is 0.168 KA relative to UGCAUGU.

As for B23, the binding signal was 0.11 KA relative to UGCAUGU.

For B24, the binding signal is 0.0339 KA relative to UGCAUGU.

Turning to B25, the binding signal is 0.072 KA relative to UGCAUGU.

Regarding B26, the binding signal was 0.0964 KA relative to UGCAUGU.

As to B27, the binding signal was 0.044 KA relative to UGCAUGU.

Regarding B28, the binding signal was 0.0969 KA relative to UGCAUGU.

For B29, the binding signal is 0.115 KA relative to UGCAUGU.

On to B30, for which the binding signal was 0.111 KA relative to UGCAUGU.

On to B31, for which the binding signal is 0.0639 KA relative to UGCAUGU.
